Source: patent US20240425589A1, “CYTOTOXICITY-INDUCING THERAPEUTIC AGENT FOR USE IN TREATMENT OF CANCER” (CHUGAI SEIYAKU KABUSHIKI KAISHA, priority 2021, published 2024)
These are yes or no findings as the source states them, for the method shown. Some results given as binding are weak or reduced against the parent protein; the word gives no strength. Blank lines part the entries; values can stand above or below the binder they belong to.

Sequences of proteins named here, by UniProt entry; tags and fusion partners are left off. Residues count along the entry.
UniProt A9YYE7, residues 24-186: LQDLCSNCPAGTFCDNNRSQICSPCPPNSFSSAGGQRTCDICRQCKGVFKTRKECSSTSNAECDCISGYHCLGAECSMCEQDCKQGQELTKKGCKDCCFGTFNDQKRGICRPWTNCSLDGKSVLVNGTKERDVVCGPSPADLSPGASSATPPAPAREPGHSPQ

What was measured:
[1] = target: T1, human CLDN6 on Ba/F3 cells (hCLDN6/BaF) (human) (UniProt P56747); experiment: flow cytometry on hCLDN6/BaF3 cells, antibody at 15 micro g/ml, detection with Alexa Fluor 488 anti-human IgG
T1 sequence: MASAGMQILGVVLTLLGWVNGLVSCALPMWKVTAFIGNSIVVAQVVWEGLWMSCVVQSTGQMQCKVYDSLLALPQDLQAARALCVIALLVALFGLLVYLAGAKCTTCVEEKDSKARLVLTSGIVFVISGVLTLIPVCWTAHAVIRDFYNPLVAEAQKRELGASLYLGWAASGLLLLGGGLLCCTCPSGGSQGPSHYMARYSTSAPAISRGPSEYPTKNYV

[2] = target: T1, human CLDN6 on Ba/F3 cells (hCLDN6/BaF) (human); experiment: flow cytometry on Ba/F3 transfectants (hCLDN6/BaF, hCLDN3/BaF, hCLDN4/BaF, hCLDN9/BaF), antibody at 15 micro g/ml, Alexa Fluor 488 anti-human IgG
hCLDN4/BaF3 = target: T2, hCLDN4/BaF3; experiment: flow cytometry on hCLDN4/BaF3 cells, detection with Alexa Fluor 488 anti-human IgG
T2 sequence (membrane protein): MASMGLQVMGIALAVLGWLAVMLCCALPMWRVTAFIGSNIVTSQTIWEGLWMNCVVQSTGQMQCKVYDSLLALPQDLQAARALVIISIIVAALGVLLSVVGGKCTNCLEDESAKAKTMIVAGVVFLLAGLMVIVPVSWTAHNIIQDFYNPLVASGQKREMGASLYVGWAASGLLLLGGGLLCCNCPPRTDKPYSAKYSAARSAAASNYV

hCLDN3/BaF3 = target: T3, hCLDN3/BaF3; experiment: flow cytometry on hCLDN3/BaF3 cells, detection with Alexa Fluor 488 anti-human IgG
T3 sequence (membrane protein): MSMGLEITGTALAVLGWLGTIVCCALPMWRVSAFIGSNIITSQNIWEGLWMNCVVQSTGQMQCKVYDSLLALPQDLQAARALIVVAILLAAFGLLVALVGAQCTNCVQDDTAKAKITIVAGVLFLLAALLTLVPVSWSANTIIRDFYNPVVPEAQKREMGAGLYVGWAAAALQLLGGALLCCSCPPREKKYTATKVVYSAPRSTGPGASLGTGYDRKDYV

[3] = target: T4, human CLDN6 VLP (virus-like particle) (human) (UniProt P56747); experiment: SPR Biacore T200, CLDN6 VLP captured by anti-human CD81
T4 sequence: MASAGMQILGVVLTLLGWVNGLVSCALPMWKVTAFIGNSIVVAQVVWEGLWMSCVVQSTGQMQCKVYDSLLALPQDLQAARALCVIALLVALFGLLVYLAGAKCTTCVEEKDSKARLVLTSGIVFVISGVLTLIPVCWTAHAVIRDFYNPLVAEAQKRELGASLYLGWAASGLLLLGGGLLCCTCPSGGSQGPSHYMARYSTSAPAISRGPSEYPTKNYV

[4] = target: recombinant cyno CD137 (cynomolgus monkey) (UniProt A9YYE7); experiment: SPR Biacore 8K, antibody captured by anti-human Fc

binding [1]: binds
binding [2]: binds
B1: CS2961 (bispecific antibody, V domains shown)
VH 1: QVQLVESGGGVVQPGGSLRLSCAASGFTFSSYTMSWVREAPGQGLEWMGTISSGGGRTYYPDSVKGRFTISRDNSKNTLYLQMNSLRDEDTAVYYCARGDYRYDGFAYWGEGTLVTVSS
VL 1: DIQMTQSPSSLSASVGDRVTITCRASYNIDSYLAWYQKKPGKAPELLIYYSTLLVDGVPDRFSGSRSGTDFTLTISSLQPEDFATYYCQHYYSIPYTFGQGTKVEIE
VH 2: QVQLVESGGGVVQPGGSLRLSCAASGFTFSNAWMHWVRKAPGKGLEWVAQIKDKSQNYATYVAESVKGRFTISRADSKNSIYLQMNSLKTEDTAVYYCRYVHYAAGYGVDIWGQGTTVTVSS
VL 2: DIVMTQSPLSLPVTPGEPASISCRSSQPLVHSNRNTYLHWYQEKPGQAPRLLIYKVSNRFSGVPDRFSGSGSGTDFTLKISRVEAEDVGVYYCGQGTQVPYTFGQGTKLEIK

binding (hCLDN4/BaF3): no binding (tested: 15 micro g/ml)
binding (hCLDN3/BaF3): no binding (tested: 15 micro g/ml)
B2: KLH/TR01 (bispecific antibody, V domains shown)
VH 1: QVQLQQSGPQLVRPGASVKISCKASGYSFTSYWMHWVNQRPGQGLEWIGMIDPSYSETRLNQKFKDKATLTVDKSSSTAYMQLSSPTSEDSAVYYCALYGNYFDYWGQGTTLTVSS
VL 1: DIQMTQSSSSFSVSLGDRVTITCKASEDIYNRLAWYQQKPGNAPRLLISGATSLETGVPSRFSGSGSGKDYTLSITSLQTEDVATYYCQQYWSTPYTFGGGTKLEVK
VH 2: QVQLVESGGGVVQPGGSLRLSCAASGFTFSNAWMHWVRQAPGKGLEWVAQIKDKSQNYATYVAESVKGRFTISRADSKNSIYLQMNSLKTEDTAVYYCRYVHYAAGYGVDIWGQGTTVTVSS
VL 2: DIVMTQSPLSLPVTPGEPASISCRSSQPLVHSNRNTYLHWYQQKPGQAPRLLIYKVSNRFSGVPDRFSGSGSGTDFTLKISRVEAEDVGVYYCGQGTQVPYTFGQGTKLEIK

binding [3]: binds
binding [4]: binds
B3: PPU4135 (bispecific antibody, human IgG1, kappa, L234A L235A, N297A)
heavy 1: QVQLVESGGGVVQPGGSLRLSCAASGFTFSSYTMSWVRQAPGQGLEWMGTISSGGGRTYYPDSVKGRFTISRDNSKNTLYLQMNSLRDEDTAVYYCARGDYRYDGFAYWGEGTLVTVSSASTKGPSVFPLAPSSKSTSGGTAALGCLVEDYFPEPVTVSWNSGALTSGVHTFPAVLESSGLYSLSSVVTVPSSSLGTQTYICNVNHKPSNTKVDKRVEPKSCDKTHTCPPCPAPEAAGGPSVFLFPPKPKDTLMISRTPEVTCVVVDVSHEDPEVKFNWYVDGVEVHNAKTKPREEQYASTYRVVSVLTVLHQDWLNGKEYKCKVSNKALPAPIEKTISKAKGQPREPQVYTLPPSREEMTKNQVSLTCLVKGFYPSDIAVEWESNGQPENNYKTTPPVLDSDGSFFLYSKLTVDKSRWQQGNVFSCSVMHEALHNHYTQESLSLSP
light 1: DIQMTQSPSSLSASVGDRVTITCRASYNIDSYLAWYQQKPGKAPELLIYYSTLLVDGVPDRFSGSRSGTDFTLTISSLQPEDFATYYCQHYYSIPYTFGQGTKVEIERTVAAPSVFIFPPSDEQLKSGTAKVVCLLNNFYPREAKVQWKVDNALQSGNSKESVTEQDSKDSTYSLSSTLTLSKADYEKHKVYACEVTHQGLSSPVTKSFNRGEC
heavy 2: QVQLVESGGGLVQPGRSLRLSCAASGFKFSNVWFHWVRQAPGKGLEWVAQIKDYYNAYAAYYAPSVKGRFTISRDDSKNSIYLQMNSLKTEDTAVYYCHYVHYASASTLLPAEGVDAWGQGTTVTVSSASTKGPSVFPLAPSSKSTSGGTAALGCLVKDYFPEPVTVSWNSGALTSGVHTFPAVLKSSGLYSLSSVVTVPSSSLGTQTYICNVNHKPSNTKVDKRVEPKSCDKTHTCPPCPAPEAAGGPSVFLFPPKPKDTLMISRTPEVTCVVVDVSHEDPEVKFNWYVDGVEVHNAKTKPREEQYASTYRVVSVLTVLHQDWLNGKEYKCKVSNKALPAPIEKTISKAKGQPREPQVYTLPPSRKEMTKNQVSLTCLVKGFYPSDIAVEWESNGQPENNYKTTPPVLDSDGSFFLYSKLTVDKSRWQQGNVFSCSVMHEALHNHYTQKSLSLSP
light 2: DIVMTQSPLSLPVTPGEPASISCQPSQEVVHMNRNTYLHWYQQKPGQAPRLLIYKVSNRFPGVPDRFSGSGSGTDFTLKISRVEAEDVGVYYCAQGTSHPFTFGQGTKLEIKRTVAAPSVFIFPPSDEQLKSGTAEVVCLLNNFYPREAKVQWKVDNALQSGNSEESVTEQDSKDSTYSLSSTLTLSKADYEKHKVYACEVTHQGLSSPVTKSFNRGEC
